Data from PubChem BioAssay AID1466 (National Center for Advancing Translational Sciences (NCATS), 2008).
Out of some 200,000 compounds screened, about 10 (0.005%) were called active. Inconclusive results, whose numbers are uncertain, are shown with a selection of clear calls. The call rests on the fitted dose curve; in most records, active means well fitted inhibition curve with a large enough effect; inconclusive means small, poorly fitted or top-dose-only effect, or effect the other way, or another doubt; inactive means no such curve, though single readings can be large or run the other way. Potencies of inconclusive entries are doubtful fits and often do not repeat.

target: Lysosomal alpha-glucosidase (Homo sapiens) (UniProt P10253); experiment: qHTS Assay for Inhibitors of Human alpha-Glucosidase as a Potential Chaperone Treatment of Pompe Disease; conditions: purified human GAA, 4-MU-alpha-glucoside fluorescence; activity change, negative = inhibition: at 76.9 µM (top of the series) unless noted;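 on activity change, negative = inhibition: plate controls were uninhibited enzyme wells for no effect and no-enzyme background for full effect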
Method in brief: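 Activity normalized between no-enzyme (basal) and enzyme-only wells. Conditions: 4 nM human enzyme, 400 uM fluorogenic substrate, citrate/phosphate pH 5.0 with Tween-20, 20 min room temperature, compounds up to 77 uM.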
Potency means the concentration at half of the fitted maximal effect; tags describe the fitted curve by direction and shape.

Potency, inconclusive:
Nc1c(C(=O)N2CCCC2)sc2nc3c(cc12)CCCCCC3 56.2 µM [activator, single point], CC(C)CC(COCc1cccc(Cl)c1)N1CCN(C(=O)c2ccc(C(F)(F)F)cc2)CCC1=O (stereo unspecified) 56.2 µM [inhibitor, single point], CN1CCN(S(=O)(=O)c2cccc(C(=O)NCc3ccccc3Cl)c2)CC1 12.6 µM [inhibitor, single point], CCN(CC)CCNc1nc(-c2ccco2)c2c(c1C#N)CC(C)(C)OC2 3.98 µM [activator, single point], COC(=O)c1ccc(C(=O)OC)c(NC(=S)N2CCCCC2C)c1 (stereo unspecified) 22.4 µM [activator, partial curve], Cc1cccc(NC(=O)CCCCCN2C(=O)c3ccccc3C2=O)n1 11.2 µM [inhibitor, partial curve], CC(C)CN(Cc1c(O)ccc2ccccc12)CC(C)C 17.8 µM [activator, partial curve], COc1cccc(OC)c1C(=O)n1nc(C)cc1C 8.91 µM [inhibitor, single point], CCOC(=O)c1cnc2cc(-c3ccc(C)cc3)nn2c1-c1ccccc1 0.355 µM [inhibitor, full curve, poor fit], COc1ccc(Br)cc1S(=O)(=O)N1CCCC1 0.355 µM [inhibitor, full curve], Cc1occc1-c1nnc(SCC(=O)c2ccccc2)n1CC1CCCO1 (stereo unspecified) 0.631 µM [inhibitor, full curve, poor fit], COc1ccc(CCN2C(=O)CC(NNC(=O)c3ccc(F)cc3)C2=O)cc1OC (stereo unspecified) 0.178 µM [inhibitor, full curve, poor fit], CCOC(=O)/C=c1\s/c(=C\c2c(OC)ccc3ccccc23)c(=O)n1CC(=O)NCC1CCCO1 (stereo unspecified) 35.5 µM [inhibitor, partial curve], CCOc1ccc(N2C(=O)CC(Sc3nc(CC(C)C)ccc3C#N)C2=O)cc1 (stereo unspecified) 1.12 µM [inhibitor, partial curve, poor fit], O=C(Nc1ccc(C(=O)O)cc1)Nc1cccc([N+](=O)[O-])c1 5.62 µM [inhibitor, single point], COc1ccc(CCNC(=O)c2cc(-c3ccncc3)nc3c(Cl)cccc23)cc1OC 28.2 µM [inhibitor, single point], O=C(Oc1cccc(NC(=O)c2ccco2)c1)c1cccc(S(=O)(=O)N2CCCC2)c1 56.2 µM [inhibitor, single point], CCCCOc1ccc2c(c1)C(=O)c1cc(O)ccc1-2 28.2 µM [inhibitor, partial curve, poor fit], Cc1ccc(OCC(=O)N2N=C(C(F)(F)F)CC2(O)C(C)(C)C)cc1C (stereo unspecified) 10 µM [inhibitor, single point], COCCn1c(=O)[nH]c2cc(C(=O)NC(C)C)ccc2c1=O 35.5 µM [activator, partial curve], CCOC(=O)c1cnc(-n2nc(C)cc2C)nc1NNc1cc(-c2ccccc2)nc(C)n1 1.12 µM [inhibitor, full curve, poor fit], CN1CCN(C(=O)c2cccc(S(=O)(=O)N3CCCCC3)c2)CC1 50.1 µM [inhibitor, single point], COc1ccc(N2CCN(c3oc(COc4ccccc4Cl)nc3C#N)CC2)cc1 11.2 µM [inhibitor, single point], CCOc1ccc2nc(NCCNC(=O)C3CC3)c(C)cc2c1 39.8 µM [activator, single point], CCOC(=O)Cc1csc(N/C(=N/S(=O)(=O)c2ccc(Cl)cc2)c2ccccc2)n1 56.2 µM [inhibitor, single point], CC(=O)Nc1ccc(S(=O)(=O)NNC(=O)c2ccc(S(=O)(=O)N3CCCCC3)cc2)cc1 35.5 µM [inhibitor, single point], CCC(NC(=O)OC(C)(C)C)C(=O)Oc1ccc2c3c(c(=O)oc2c1)CCC3 (stereo unspecified) 35.5 µM [activator, partial curve], FC(F)(F)C1=CC(c2ccc(Cl)cc2)=NCCN1 22.4 µM [inhibitor, partial curve, poor fit], COC(=O)c1sc(NC(=O)COc2c(C)cccc2C)nc1C 3.55 µM [inhibitor, partial curve]

Activity change, negative = inhibition, inconclusive:
Cc1ccccc1OCc1n[nH]c(=S)n1-c1ccccc1 16.1% [activator], CCn1ccnc1CN(C)Cc1nc(CCC(C)C)no1 10.1% [activator], Cc1n[nH]c(=S)n1-c1ccc(Cl)cc1 14.1% [activator], CCCNC(=O)C(NS(=O)(=O)c1cccc2nsnc12)c1ccccc1 (stereo unspecified) 3.45% [activator], O=C(O)c1ccccc1-c1nc2ccccc2n1-c1ccccc1 -16.3% [inhibitor], COc1cc(C2c3c(-c4ccccc4)n[nH]c3C(=O)N2c2ccccc2)ccc1O (stereo unspecified) 18.6% [activator], O=C(Nc1cccnc1)c1cccc(S(=O)(=O)N2CCOCC2)c1 -19% [inhibitor], COc1ccc(Cl)cc1N/C(N)=N/c1nc(C)cc(C)n1 17.6% [activator]

Activity change, negative = inhibition, inactive:
Cc1noc(C)c1COc1ccc2ccc(=O)oc2c1 2.21%, CC(=O)N(Cc1ccc(F)cc1)C1=C(NCCc2ccccc2)C(=O)c2ccccc2C1=O -11%, CNC(=O)c1nnsc1S(=O)(=O)c1ccc(Cl)cc1 1.82%, COc1ccc(C2SCC(=O)N2CCc2ccc(OC)c(OC)c2)cc1 (stereo unspecified) 1.17%
